Assay [1] has as its target T1, RhoGDI complexed with p75^NTR DD (molar ratio 1:2) (human, UniProt P52565 2-204; P08138 330-427).
T1 construct: RhoGDI, human, residues 2-204; p75 neurotrophin receptor, human, death domain, residues 330-427; 1:2 is the ratio in which the two proteins were mixed, not a measured stoichiometry; also called RhoGDI precomplexed with purified p75^NTR DD; source: E. coli SoluBL21 (DE3), purified proteins mixed
T1 sequence (looked up) 1: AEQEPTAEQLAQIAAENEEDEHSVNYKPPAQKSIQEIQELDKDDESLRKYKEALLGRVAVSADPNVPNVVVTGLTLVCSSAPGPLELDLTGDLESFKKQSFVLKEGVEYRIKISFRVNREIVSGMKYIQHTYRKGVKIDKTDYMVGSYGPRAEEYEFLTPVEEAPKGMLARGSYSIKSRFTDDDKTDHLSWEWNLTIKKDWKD
T1 sequence (looked up) 2: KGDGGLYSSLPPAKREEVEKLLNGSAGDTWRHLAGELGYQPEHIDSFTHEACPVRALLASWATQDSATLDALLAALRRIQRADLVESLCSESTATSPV
The assay is described as follows: SPR; unprenylated RhoA:GDP:Mg2+ immobilised by amine coupling on CM5 chip; BIAcore T200, 22°C; 10 mM HEPES, 50 mM NaCl, 0.005% Surfactant P20, pH 7.0 (1 mM MgCl2 and 100 µM GDP for RhoGDI); steady-state analysis, one binding site model. The following applies: both partners purified. For orientation: Surface plasmon resonance follows binding to a sensor surface in real time, without labels.

Assay [2] addresses T2, human RhoGDI (2–204) (human, UniProt P52565 2-204).
T2 construct: 15N- or 13C,15N-labelled in some NMR samples; source: E. coli SoluBL21 (DE3), purified (Ni-NTA, gel filtration Superdex 75 and/or ion exchange)
T2 sequence (looked up): T1 sequence (looked up) 1
Described as above. As to conditions: both partners purified.

One may read the Kd as a measure of binding affinity in units of concentration.

B1: human RhoA ([…]), unprenylated RhoA:GDP:Mg2+ (natural protein)
chain: not shown
notes: RhoA, human, […]; source: E. coli SoluBL21 (DE3), purified (Ni-NTA, gel filtration Superdex 75 and/or ion exchange)
Turning to B1, the figures for the Kd in assay [1] and in assay [2] were 2200 ± 110 nM and 140 ± 10 nM, respectively.

The values above are taken from article PMC4739766 (eLife, 2015).
